Source: PubChem BioAssay (NCATS)
This list was built around the results that the source calls inconclusive (neither active nor inactive); the mix of calls is not that of the screen. No potency is given beside an inconclusive call; the fits are too rough. Active and inactive are the calls of the source. Calls come from the whole dose curve; as a rule, active = well fitted inhibition curve with a large enough effect; inconclusive = small, poorly fitted or top-dose-only effect; inactive = no such curve, though single readings can be large or run the other way.

The molecules below were run against Rap guanine nucleotide exchange factor 3 (Homo sapiens) (UniProt O95398) (assay: Confirmatory qHTS for antagonist of cAMP-regulated guanine nucleotide exchange factor 3 (EPAC1) (AID 1645880; note: nearly all actives have a fitted effect of over 55% in size;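 for activity, negative = inhibition: plate controls were DMSO only for no effect and full effect of the ATA control for full effect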)). Conditions: EPAC1 Rap1B-BODIPY-GDP exchange, fluorescence; activity, negative = inhibition: at 115 µM (top of the series).
Method in brief: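 Released BODIPY-GDP fluoresces less than Rap1-bound BODIPY-GDP; the signal is followed at 480/540 nm at 5-min intervals over 30 min, after 5 min at room temperature. Reactions contain 100 nM EPAC1, 250 nM RAP1B-BODIPY-GDP and 50 uM GDP; results are normalized to ATA and DMSO.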
Potency is the fitted concentration of half-maximal effect; tags give direction and shape of the fitted curve.

UniProt O95398, sequence (O95398 whole entry, looked up): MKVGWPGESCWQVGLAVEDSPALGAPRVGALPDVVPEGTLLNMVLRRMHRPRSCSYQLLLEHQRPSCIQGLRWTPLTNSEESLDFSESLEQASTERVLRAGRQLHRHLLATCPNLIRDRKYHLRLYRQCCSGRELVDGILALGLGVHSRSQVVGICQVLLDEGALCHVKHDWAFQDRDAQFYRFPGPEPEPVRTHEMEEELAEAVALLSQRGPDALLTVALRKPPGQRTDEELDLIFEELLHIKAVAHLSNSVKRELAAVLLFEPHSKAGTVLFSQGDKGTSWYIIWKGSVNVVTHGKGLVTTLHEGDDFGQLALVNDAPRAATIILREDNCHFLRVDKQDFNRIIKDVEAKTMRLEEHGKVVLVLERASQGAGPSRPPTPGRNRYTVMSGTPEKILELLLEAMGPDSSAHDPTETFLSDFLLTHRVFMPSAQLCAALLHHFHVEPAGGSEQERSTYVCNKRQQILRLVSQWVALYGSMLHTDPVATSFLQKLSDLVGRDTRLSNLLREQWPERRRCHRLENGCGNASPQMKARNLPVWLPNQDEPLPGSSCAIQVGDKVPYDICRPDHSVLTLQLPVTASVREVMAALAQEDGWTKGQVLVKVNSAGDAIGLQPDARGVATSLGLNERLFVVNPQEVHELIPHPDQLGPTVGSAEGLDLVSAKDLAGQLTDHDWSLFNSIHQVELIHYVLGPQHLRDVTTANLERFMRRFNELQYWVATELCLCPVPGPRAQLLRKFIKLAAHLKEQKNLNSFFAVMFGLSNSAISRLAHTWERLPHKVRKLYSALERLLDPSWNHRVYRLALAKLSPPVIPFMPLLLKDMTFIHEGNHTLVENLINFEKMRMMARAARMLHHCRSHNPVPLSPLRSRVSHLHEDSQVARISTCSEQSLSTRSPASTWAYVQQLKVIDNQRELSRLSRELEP

Structure (SMILES)	activity, negative = inhibition	Potency
CCCNC(=O)c1ccc(N2CCC3(CC2)CC(c2ccccc2)=NO3)c(NC(=O)c2ccccc2)c1	inactive: -30.4%	
CCOC(=O)c1c(NC(=O)CSc2nnc(C)c(=O)[nH]2)sc(C)c1-c1ccc(C)cc1		active: 75.7 µM
COc1ccc(C2OCC3(COC(C)=O)C(C)C=C(C)C2C3C)cc1 (stereo not given)	inactive: -17.2%	
CCN(CC)c1ccc2cc(-c3nc(-c4ccccc4)no3)c(=O)oc2c1	inactive: 347%	
COc1ccc(C(=O)c2oc3ccc(OC)cc3c2N)cc1		inconclusive [inhibitor, partial curve, poor fit]
Cc1ccc(S(=O)(=O)NCc2ccccc2)cc1C(=O)N1CCCC(C(F)(F)F)C1 (stereo not given)	inactive: -23.8%	
COc1ccc(NC(=O)COC(=O)CCCOc2ccc(Cl)cc2Cl)cc1Cl		inconclusive [inhibitor, partial curve, poor fit]
C#Cc1ccc([C@H]2C=C(C(=O)NCc3ccccc3)O[C@@H](OCC)[C@@H]2CCCO)cc1		inconclusive [inhibitor, partial curve]
COc1ccc(C(=O)NCCn2cc(SCc3cccc(F)c3)c3ccccc32)cc1OC		inconclusive [inhibitor, partial curve, poor fit]
O=C1CSC(=Nc2ccccc2)N1Cc1ccccc1	inactive: -21.4%	
Cc1cc2c(N)cccc2nn1		inconclusive [inhibitor, full curve]
CC(=O)Nc1ccc(S(=O)(=O)N2CCN(c3cc(C)ccc3C)CC2)cc1		inconclusive [inhibitor, partial curve, poor fit]
Cc1nn(-c2ccccc2)c2nc(N)c(C#N)c(-c3ccc(O)c(O)c3)c12		inconclusive [inhibitor, partial curve]
CCOC(=O)C1CCc2c(ccc3ccccc23)N1CCC#N (stereo not given)		inconclusive [inhibitor, partial curve, poor fit]
Cc1cccc(NC(=O)CNC(=O)CCc2nc3sc4c(c3c(=O)[nH]2)CCCC4)c1C		inconclusive [inhibitor, partial curve]
Clc1ccc(CSc2nnc(-c3ccccn3)n2Cc2ccco2)cc1Cl		inconclusive [inhibitor, partial curve, poor fit]
C[C@@H](NC(=O)C1(c2ccccc2)CCN(C(=O)OC(C)(C)C)CC1)C(=O)N[C@@H](C(=O)O)c1ccccc1		active: 42.6 µM
CCn1c(=O)c(C(=O)NNS(=O)(=O)c2ccc(C)cc2)c(O)c2ccccc21		active: 75.7 µM
CC(=O)Nc1ccc(NC(=S)NC(=O)/C=C/c2ccco2)cc1		inconclusive [inhibitor, partial curve]
Cc1ccn2c(-c3csc(NCc4ccccc4)n3)c(C)nc2c1	inactive: -24.2%	

Structure (SMILES)	activity, negative = inhibition	Potency
Cc1ccc(-c2nc3ccc(C)cn3c2Cc2cccc(F)c2)cc1		inconclusive [inhibitor, partial curve, poor fit]
Cc1cc(C(=O)N/N=C/c2ccc(O)c([N+](=O)[O-])c2)c(C)n1-c1ccc(F)cc1		active: 42.6 µM
Cc1ccc(C)c(Oc2nc3c(c(=O)n(C)c(=O)n3C)n2Cc2ccccc2)c1		inconclusive [inhibitor, partial curve, poor fit]
COc1ccc(C(=O)Oc2ccc(/C=N/Nc3ccc(Cl)c(C(=O)O)c3)cc2OC)cc1		inconclusive [inhibitor, partial curve]
COc1ccc(-n2cc(-c3ccccc3)c3c(N4CCOCC4)ncnc32)cc1	inactive: -19.6%	
Cc1ccccc1OCC(=O)Nc1ccccc1N1CCC(C)CC1		inconclusive [inhibitor, partial curve, poor fit]
CCc1c(C2(O)CCCCC2)[nH]c2c(C(=O)OC)cc(Cl)cc12		inconclusive [inhibitor, partial curve, poor fit]
Fc1cccc(Cc2c(-c3ccc(Cl)cc3)nc3ccc(Cl)cn23)c1		inconclusive [inhibitor, partial curve]
COC1=C/C(=C/c2c(N)n3nc(-c4ccc(C)cc4)sc3nc2=O)C=CC1=O		inconclusive [inhibitor, full curve, poor fit]
Cc1ccc2nc(-c3ccc(Cl)cc3)c(Cc3ccccc3C(F)(F)F)n2c1	inactive: -29.4%	
Cc1cccc(Oc2ccccc2NC(=O)C2=COCCO2)c1		inconclusive [inhibitor, partial curve]
COC(=O)CN(c1nc(C)c(Br)c(OC)n1)S(=O)(=O)c1ccccc1		inconclusive [inhibitor, partial curve, poor fit]
CN1CCc2nc3sc(C(=O)C45CC6CC(CC(C6)C4)C5)c(N)c3cc2C1		inconclusive [inhibitor, partial curve, poor fit]
CCOc1ccc(NC(=O)CN(C)C(=O)c2ccccc2SCc2c(C)noc2C)cc1OCC	inactive: -21.6%	
O=C1Nc2ccccc2N=C(c2ccccc2)c2ccccc21		inconclusive [inhibitor, partial curve, poor fit]
COc1ccc(Cl)cc1N(C)C(=O)Cc1noc2ccc(C)cc12	inactive: -17%	
CCCCn1nnnc1C(c1cc2ccccc2o1)N1CCN(c2cc(C)nc3ccccc23)CC1 (stereo not given)	inactive: -14.9%	
COc1ccc(-c2ccc(CCC(=O)O)n2-c2ccc(Cl)cc2C)cc1	inactive: -17%	
Cc1ccc(CNC(=O)c2c[nH]n3c(=O)c(Cc4ccc(Cl)cc4)c(C)nc23)cc1		inconclusive [inhibitor, single point]
O=C(Cc1c(Cl)cccc1Cl)Nc1ccc(S(=O)(=O)Nc2ncccn2)cc1	inactive: -3.73%	
